Reference: PubChem BioAssay AID1671193 (National Center for Advancing Translational Sciences (NCATS), 2021)
Where “and” joins values, the source holds several entries; their conditions need not be identical. Identical values can stand only once. Hit rate of the full screen: of about 150,000 compounds, about 180 (0.12%) were called active. Inconclusive means that the source gave no clear call. Such entries were picked first, then a sample of the others. Calls follow the shape of the dose curve; as a rule, active = well fitted cell-killing curve with a large enough effect; inconclusive = small, poorly fitted or top-dose-only effect, or effect the other way; inactive = flat fitted curve, though single readings scatter. Potencies beside an inconclusive call are fits to weak or partial responses and may not hold up.
Potency is read from the fitted curve at half-maximal effect; tags tell the direction and shape of the fitted curve.

Assay: GF-AFC viability counterscreen for inhibitors of alpha-synuclein gene (SNCA) expression; also: nearly all actives have a fitted effect of over 30% in size;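 as to activity change, negative = cytotoxicity: 0% = DMSO-treated cells and -100% = medium-only wells without cells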
Settings: HEK-293-SNCA-luc viability, GF-AFC fluorescence, 24 h; activity change, negative = cytotoxicity: at 57.1 µM (top of the series) unless noted
Method in brief: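 Cytotoxicity counterscreen: after 24 h compound treatment of genome-edited SNCA-luciferase HEK-293 cells, live-cell protease substrate GF-AFC read by fluorescence after 30 min; activity scaled between DMSO (0%) and medium-only (-100%), curves Hill-fitted.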
In the case of Cc1nc2n(c1C(=O)NCC1CC1)CCC(Nc1ccc(F)cc1)C2 (configuration not stated), the Potency was “inactive”. In the case of COc1cc2c(Nc3cc(F)c(Cl)c(Cl)c3)ncnc2cc1OCC1CCCN(C)CCC1, the Potency was inconclusive: 23.8 µM [cytotoxic, partial curve, poor fit]. In the case of Cn1c(=O)c(-c2cccs2)nc2cnc(N3CCOCC3)nc21, the Potency was inconclusive: 3.16 µM [rising, full curve, poor fit]. In the case of CCC(Sc1nc2ccccc2c2nc(CCc3c(C)n[nH]c3C)nn12)C(=O)Nc1ccc(F)cc1 (configuration not stated), the Potency was inconclusive: 2.51 µM [cytotoxic, full curve, poor fit]. For CN1[C@@H](CCC(=O)NCc2ccco2)CNC(=O)[C@H]2NCC[C@H]21, the Potency was “inactive”. For Cc1cccc(CN2CCn3c(nnc3[C@@H]3C[C@@H](O)CN3Cc3cccnc3)C2)c1, the activity change, negative = cytotoxicity was inactive: -9.57% [at 12.5 µM]. In the case of CCCCCC(=O)N[C@H]1C[C@@H](Cc2cc(COc3ccccc3)on2)C1(C)C, the Potency was inconclusive: 28.2 µM [cytotoxic, single point]. For CC(C)S(=O)(=O)N1CC(Oc2ccc(-c3noc(-c4cccnc4)n3)cc2)C1, the Potency was “inactive”. With COc1ccc(-c2c(C)c3ccc(O)c(CN4CCC(C)CC4)c3oc2=O)cc1OC the Potency was inconclusive: 22.4 µM [rising, single point]. For CC(=O)Nc1ccccc1-c1nc2ccccc2n(C(C)C(=O)Nc2ccccc2C(F)(F)F)c1=O (configuration not stated), the Potency was inconclusive: 3.55 µM [cytotoxic, partial curve, poor fit]. With O=C(C[C@@H]1CCNC[C@@H]1Cc1cc(CC2CCCCC2)on1)NC1CCCCC1 the Potency was “inactive”. With Cc1noc(C)c1S(=O)(=O)N(CC(=O)Nc1ccc(F)cc1F)c1ccc(C(C)C)cc1 the Potency was inconclusive: 14.1 µM [rising, single point]. With Cc1ccc(S(=O)(=O)C(CNS(=O)(=O)c2cc(F)ccc2F)c2cccs2)cc1 (configuration not stated) the Potency was inconclusive: 39.8 µM [cytotoxic, single point]. In the case of C#Cc1cccc(Nc2ncnc3cc(OCCOC)c(OCCO)cc23)c1, the Potency was inconclusive: 42.9 µM [cytotoxic, single point]. For COc1ccc(-c2nc3sc(CCNC(=O)c4ccc(Br)o4)c(C)n3n2)cc1, the Potency was inconclusive: 28.2 µM [cytotoxic, single point]. For CC[C@H](CC#N)OC(=O)N[C@@H](C)c1cccc(NC(=O)Nc2ccc(-c3cnco3)c(OC)c2)c1, the Potency was inconclusive: 10.8 µM [cytotoxic, full curve, poor fit] and inconclusive: 2.12 µM [cytotoxic, partial curve, poor fit]. For CCOC(=O)c1cc2c(=O)n3ccccc3nc2n(C(C)C)c1=NC(=O)C(C)(C)Oc1ccc(Cl)cc1, the Potency was inconclusive: 10 µM [rising, partial curve, poor fit]. With Cc1ncsc1CN1CCCCC1c1nc(CCOc2ccc(F)cc2)no1 (configuration not stated) the Potency was “inactive”. For COCCN1CCN(C[C@@H]2C=C(C)[C@H](Cc3nnc(-c4ccc(N(C)C)cc4)o3)C[C@H]2C(C)C)CC1, the Potency was inconclusive: 17.8 µM [cytotoxic, partial curve]. For CC(C)(O)CCc1cccc(C(=O)N2CC=C(c3ccc(F)cc3)CC2)c1, the Potency was inconclusive: 39.8 µM [cytotoxic, single point]. With CN(Cc1cccc2ccccc12)C(=O)c1cc(CN2CCOCC2)on1 the Potency was “inactive”. With c1cn(-c2ncnc3ccc(-c4ccoc4)cc23)cn1 the Potency was inconclusive: 6.31 µM [cytotoxic, partial curve, poor fit]. With COCCN1CCCCCC(O)c2cc(C(=O)NC3CCC3)ccc21 (configuration not stated) the Potency was “inactive”. With COc1cc2cc(CN3CCC(N(C)C)C3)c(-c3cccc(Cl)c3)nc2cc1OC (configuration not stated) the Potency was inconclusive: 1.12 µM [cytotoxic, full curve, poor fit]. For Cn1cc(C(=O)N2CCC3(CC2)CN(c2ncccn2)CC3CO)cn1 (configuration not stated), the Potency was “inactive”. For COc1ccc(-n2nc3c(N4CCC(C(=O)NCc5ccccc5C)CC4)nnc(C)c3c2C)cc1, the Potency was inconclusive: 31.6 µM [cytotoxic, partial curve, poor fit]. In the case of CC(NC(=O)c1cc2c(=O)n3ccccc3nc2n(C(C)C)c1=N)c1ccccc1 (configuration not stated), the Potency was inconclusive: 5.62 µM [rising, partial curve]. With Nc1nc(N)c(N=O)c(OCC2CCCCC2)n1 the Potency was inconclusive: 9.61 µM [cytotoxic, partial curve]. With O=C(Cc1ccc(F)cc1)NC1CCN(c2nccc(Nc3ccccc3F)n2)CC1 the Potency was inconclusive: 8.91 µM [cytotoxic, single point]. In the case of Cc1cccc(-n2cc(CN3CCCC(C)(O)C3)c(-c3cccc(F)c3)n2)c1 (configuration not stated), the Potency was inconclusive: 14.1 µM [cytotoxic, partial curve, poor fit]. In the case of O=C(NCCc1ccccc1)c1ccc2c(c1)N(Cc1ccc(F)cc1)C(=O)CS2, the Potency was inconclusive: 14.1 µM [cytotoxic, partial curve, poor fit]. In the case of O=c1c(-c2ccc(F)cc2)nc2cnc(Nc3ccccc3)nc2n1C[C@H]1CCCO1, the Potency was inconclusive: 2.51 µM [rising, full curve, poor fit]. In the case of CCC(C)NC(=O)C(NC(=O)c1ccc(C)cc1)C1CCN(C(=O)c2cccc(F)c2)CC1 (configuration not stated), the Potency was “inactive”. In the case of COc1ccc(Cl)cc1NC(=O)CSC1=Nc2ccccc2C2=NC(CCC(=O)NCc3ccco3)C(=O)N12 (configuration not stated), the Potency was inconclusive: 14.1 µM [cytotoxic, partial curve]. For O=C(C1CC1)N1C[C@@H]2OCC(=O)N(Cc3ccccc3)[C@@H]2C1, the Potency was “inactive”. With CC(C)(C)c1ccc(CSC2=Nc3ccccc3C3=NC(CC(=O)NCc4cccs4)C(=O)N23)cc1 (configuration not stated) the Potency was “inactive”. With CC(=O)N1C[C@@H]2CCCN3CCC[C@@H]([C@H]23)[C@H]1CCCC(=O)NCCCN1CCCCC1 the Potency was “inactive”. With CN1C(=O)Cc2cc(C(=O)N3C[C@@H](CO)[C@H](c4ccccn4)C3)ccc21 the Potency was “inactive”. With COc1ccc(C(=O)NC[C@@H]2C=C(C)[C@H](Cc3nc4ccncc4[nH]3)C[C@H]2C(C)C)cc1 the Potency was inconclusive: 28.2 µM [cytotoxic, single point]. With Oc1ccc(-c2nc(-c3ccc(F)cc3)c(-c3ccncc3)[nH]2)cc1 the Potency was inconclusive: 6.81 µM [cytotoxic, partial curve]. In the case of CCCCCCOc1ccc(/C=C/C(=O)Nc2sc3c(c2C(=O)OC)CCC3)cc1OC, the Potency was inconclusive: 11.2 µM [cytotoxic, partial curve, poor fit]. With O=C(CN1C(=O)C(Oc2ccc(F)cc2)C12CCCCC2)NCCc1ccccn1 (configuration not stated) the Potency was “inactive”. In the case of Cc1ccc2nc(-c3ccc(NC(=O)Cc4ccccc4)cc3)sc2c1, the Potency was “inactive”. With Cc1ccc(C(=O)Nc2ccc(CN3CCN(C)CC3)c(C(F)(F)F)c2)cc1C#Cc1cnc2[nH]ncc2c1 the Potency was inconclusive: 33.6 µM [cytotoxic, partial curve, poor fit]. For Cc1ccc(C(CC(=O)N2CCC(C)CC2)c2cn(C)c3ccccc23)cc1 (configuration not stated), the Potency was inconclusive: 35.5 µM [cytotoxic, single point]. In the case of CS(=O)(=O)Nc1ccc(C2(C(=O)NCc3ccc(Cl)cc3)CCCCC2)cc1, the Potency was inconclusive: 39.8 µM [cytotoxic, single point]. With CCc1nc2ccc(C(=O)N3CCN(c4ccccc4F)CC3)cc2nc1CC the Potency was inconclusive: 17.8 µM [cytotoxic, partial curve, poor fit]. In the case of CCOC(=O)C1CCN(C(=O)c2cn3cc(-c4cccc(C(F)(F)F)c4)sc3n2)CC1, the Potency was “inactive”. For Cn1c(C(=O)N2CCNc3cnc(Nc4cccc(C(F)(F)F)c4)nc3C2)cc2ccccc21, the Potency was inconclusive: 28.2 µM [cytotoxic, single point]. In the case of COc1ccc(CCNC(=O)c2ccc3nnc(C4CCCC4)n3c2)cc1, the Potency was “inactive”. With CCNC(=O)N1CCC(c2nnc(CN3CCCC3)n2CC)CC1 the Potency was inconclusive: 14.1 µM [rising, partial curve, poor fit]. With COc1cccc(Nc2nnc(-c3cc4ccc(O)cc4oc3=O)s2)c1 the Potency was inconclusive: 17.8 µM [rising, partial curve, poor fit]. For O=C(O)c1ccc2cc(-c3ccc(O)c(C45CC6CC(CC(C6)C4)C5)c3)ccc2c1, the Potency was inconclusive: 3.04 µM [cytotoxic, full curve]. For Cc1nnsc1C(=O)N[C@H]1CCN(C(=O)c2ccco2)[C@H](C(=O)N[C@H](Cc2c[nH]c3ccccc23)C(N)=O)C1, the Potency was “inactive”. In the case of CC(=O)c1cccc(NC(=O)CN2C(=O)c3ccccc3Sc3ncccc32)c1, the Potency was inconclusive: 25.1 µM [cytotoxic, single point]. With O=c1n(-c2ccc([N+](=O)[O-])cc2)nc2n1CCN(Cc1ccsc1)C2 the Potency was inconclusive: 35.5 µM [cytotoxic, single point]. For Cc1ccc(-c2nc3ccccc3[nH]2)cc1NC(=O)COc1ccccc1[N+](=O)[O-], the Potency was inconclusive: 17.8 µM [cytotoxic, partial curve, poor fit]. With Cc1ccc(CN2CCC3(CCNCC3)C2)c(Cl)c1Cl the Potency was “inactive”. With Cc1cccc(S(=O)(=O)Nc2cccc(-c3ccc(N4CCCCC4)nn3)c2)c1 the Potency was “inactive”. With CCCCCCCC(=O)OCC(O)CO (configuration not stated) the activity change, negative = cytotoxicity was inconclusive: 73.5% [at 23.9 µM]. For Cc1cc2c(-c3ccccc3O)nc(-c3c(C)noc3C)cc2[nH]1, the Potency was inconclusive: 56.2 µM [cytotoxic, partial curve, poor fit]. In the case of CN1C(=O)C2(CCN([S+](=O)([O-])c3cccc(C(F)(F)F)c3)C2)c2ccccc21 (configuration not stated), the Potency was inconclusive: 22.4 µM [cytotoxic, partial curve, poor fit].
